These results are taken from paper PMC11545984, “1,3-Dipolar Cycloaddition of Nitrile Oxides and Nitrilimines to (−)-β-Caryophyllene: Stereoselective Synthesis of Polycyclic Derivatives and Their Biological Testing” (International Journal of Molecular Sciences, 2024).

This test has as its target viral neuraminidase (NA) (Influenza A virus, UniProt P03468). The test can be described thus: Cell-free anti-neuraminidase assay, influenza A. The class given is biochemical, influenza virus A/Puerto Rico/8/34 (H1N1).

The structures appear in SMILES notation.

Sequence of UniProt P03468 (P03468 whole entry, looked up): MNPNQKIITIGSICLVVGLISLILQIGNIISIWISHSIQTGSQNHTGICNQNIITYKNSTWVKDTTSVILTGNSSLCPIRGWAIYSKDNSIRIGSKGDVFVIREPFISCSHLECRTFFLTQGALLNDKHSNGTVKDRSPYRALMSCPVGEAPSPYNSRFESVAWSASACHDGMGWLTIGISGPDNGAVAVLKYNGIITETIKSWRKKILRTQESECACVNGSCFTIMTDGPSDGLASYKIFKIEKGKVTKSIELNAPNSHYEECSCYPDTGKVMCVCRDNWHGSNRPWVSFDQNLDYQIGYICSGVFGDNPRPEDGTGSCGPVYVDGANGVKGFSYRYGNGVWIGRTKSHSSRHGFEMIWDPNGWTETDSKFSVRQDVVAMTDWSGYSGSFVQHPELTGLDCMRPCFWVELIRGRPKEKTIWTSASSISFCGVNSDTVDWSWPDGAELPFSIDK

For orientation: IC50 means the concentration that inhibits the measured activity by half. A lower IC50 goes with greater potency. With `CC1(C)C[C@H]2[C@H]1CC[C@]1(C)ON=C(c3ccc(Cl)cc3)[C@H]1CC[C@@]21CC(c2ccc(Cl)cc2)=NO1` [Compound 25, (3aR,6R,6aS,8aR,10aS)-3,3′-Bis(4-chlorophenyl)-8,8,10a-trimethyl-3a,4,5,6a,7,8,8a,9,10,10a-decahydro-4′H-spiro[cyclobuta [5,6]cyclonona [1,2-d]isoxazole-6,5′-isoxazole]], the IC50 turned out to be 35.8 µM.
